# Reference: the supplement of paper PMC8728848
# The other results are listed elsewhere or left out.
# B1: OrysaEULS2 (Oryza sativa) (protein)
# chain: MVYCRANPNYAMTARNGAVVLAPANPKDEYQHWIKDMRWSTSIKDEEGYPAFALVNKATGQAIKHSLGQSHPVRLVPYNPEVMDESVLWTESRDVGNGFRCIRMVNNIYLNFDAFHGDKYHGGVRDGTDIVLWKWCEGDNQRWKIQPYYILEQKLISEEDLNSAVDHHHHHH
# Tests used:
# Experiment in all cases: glycan array binding signal (z-score within array); higher = stronger binding
# Details in all cases: glycan notation: IUPAC condensed, linker removed
# [1] = biological target: Neu5Ac(a2-6)Gal(b1-4)GlcNAc(b1-3)Gal(b1-4)GlcNAc(b1-6)[Gal(b1-3)]GalNAc
# In short: (§1)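 Negative Z-scores can be read as non-binding. The Z-score is calculated within each array and then averaged across arrays of one protein sequence at different concentrations or buffers and across linkers. Arrays, 3228 in all, were curated from the Consortium for Functional Glycomics database and kept only where the protein sequence was available.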
# [2] = biological target: Neu5Ac(a2-6)Gal(b1-4)GlcNAc(b1-3)Gal(b1-4)[Fuc(a1-3)]GlcNAc(b1-3)Gal(b1-4)[Fuc(a1-3)]GlcNAc
# In short: as §1
# [3] = biological target: Neu5Ac(a2-6)Gal(b1-4)GlcNAc(b1-3)GalNAc
# In short: as §1
# [4] = biological target: Neu5Ac(a2-6)Gal(b1-4)GlcNAc(b1-3)[Neu5Ac(a2-6)Gal(b1-4)GlcNAc(b1-6)]GalNAc
# In short: as §1
# [5] = biological target: Neu5Ac(a2-6)Gal(b1-4)GlcNAc(b1-6)GalNAc
# In short: as §1
# [6] = biological target: Neu5Ac(a2-6)Gal(b1-4)GlcNAc(b1-6)[Gal(b1-3)GlcNAc(b1-3)]Gal(b1-4)Glc
# In short: as §1
# [7] = biological target: Neu5Ac(a2-6)Gal(b1-4)GlcNAc(b1-6)[Gal(b1-3)]GalNAc
# In short: as §1
# [8] = biological target: Neu5Ac(a2-6)Gal(b1-4)GlcNAc6S
# In short: as §1
# [9] = biological target: Neu5Ac(a2-6)GalNAc
# In short: as §1
# [10] = biological target: Neu5Ac(a2-6)GalNAc(b1-4)GlcNAc
# In short: as §1
# [11] = biological target: Neu5Ac(a2-6)GalNAc(b1-4)GlcNAc6S
# In short: as §1
# [12] = biological target: Neu5Ac(a2-6)GlcNAc(b1-4)GlcNAc
# In short: as §1
# [13] = biological target: Neu5Ac(a2-6)GlcNAc(b1-4)GlcNAc(b1-4)GlcNAc
# In short: as §1
# [14] = biological target: Neu5Ac(a2-8)Neu5Ac
# In short: as §1
# [15] = biological target: Neu5Ac(a2-8)Neu5Ac(a2-3)Gal(b1-3)GalNAc(b1-4)[Neu5Ac(a2-3)]Gal(b1-4)Glc
# In short: as §1
# [16] = biological target: Neu5Ac(a2-8)Neu5Ac(a2-3)Gal(b1-3)GalNAc(b1-4)[Neu5Ac(a2-8)Neu5Ac(a2-3)]Gal(b1-4)Glc
# In short: as §1
# [17] = biological target: Neu5Ac(a2-8)Neu5Ac(a2-3)Gal(b1-4)Glc
# In short: as §1
# [18] = biological target: Neu5Ac(a2-8)Neu5Ac(a2-3)Gal(b1-4)GlcNAc
# In short: as §1
# [19] = biological target: Neu5Ac(a2-8)Neu5Ac(a2-3)[Gal(b1-3)GalNAc(b1-4)]Gal(b1-4)Glc
# In short: as §1
# [20] = biological target: Neu5Ac(a2-8)Neu5Ac(a2-3)[GalNAc(b1-4)]Gal(b1-4)Glc
# In short: as §1
# [21] = biological target: Neu5Ac(a2-8)Neu5Ac(a2-8)Neu5Ac
# In short: as §1
# [22] = biological target: Neu5Ac(a2-8)Neu5Ac(a2-8)Neu5Ac(a2-3)Gal(b1-4)Glc
# In short: as §1
# [23] = biological target: Neu5Ac(a2-8)Neu5Ac(a2-8)Neu5Ac(a2-3)[Gal(b1-3)GalNAc(b1-4)]Gal(b1-4)Glc
# In short: as §1
# [24] = biological target: Neu5Ac(a2-8)Neu5Ac(a2-8)Neu5Ac(a2-3)[GalNAc(b1-4)]Gal(b1-4)Glc
# In short: as §1
# [25] = biological target: Neu5Ac(a2-8)Neu5Ac(a2-8)Neu5Ac(a2-8)Neu5Ac(a2-3)[GalNAc(b1-4)]Gal(b1-4)Glc
# In short: as §1
# [26] = biological target: Neu5Ac(a2-8)Neu5Gc(a2-3)Gal(b1-4)GlcNAc
# In short: as §1
# [27] = biological target: Neu5Ac(b2-6)Gal(b1-4)GlcNAc
# In short: as §1
# [28] = biological target: Neu5Ac(b2-6)GalNAc
# In short: as §1
# [29] = biological target: Neu5Ac9Ac(a2-3)Gal(b1-3)GlcNAc
# In short: as §1
# [30] = biological target: Neu5Ac9Ac(a2-3)Gal(b1-4)GlcNAc
# In short: as §1
# [31] = biological target: Neu5Ac9Ac(a2-6)Gal(b1-4)GlcNAc
# In short: as §1
# [32] = biological target: Neu5Gc(a2-3)Gal(b1-3)GlcNAc
# In short: as §1
# [33] = biological target: Neu5Gc(a2-3)Gal(b1-3)[Fuc(a1-4)]GlcNAc
# In short: as §1
# [34] = biological target: Neu5Gc(a2-3)Gal(b1-4)Glc
# In short: as §1
# [35] = biological target: Neu5Gc(a2-3)Gal(b1-4)GlcNAc
# In short: as §1
# [36] = biological target: Neu5Gc(a2-3)Gal(b1-4)GlcNAc(b1-3)Gal(b1-4)GlcNAc(b1-2)Man(a1-3)[Neu5Gc(a2-3)Gal(b1-4)GlcNAc(b1-3)Gal(b1-4)GlcNAc(b1-2)Man(a1-6)]Man(b1-4)GlcNAc(b1-4)GlcNAc
# In short: as §1
# [37] = biological target: Neu5Gc(a2-3)Gal(b1-4)[Fuc(a1-3)]GlcNAc
# In short: as §1
# [38] = biological target: Neu5Gc(a2-6)Gal(b1-4)GlcNAc
# In short: as §1
# [39] = biological target: Neu5Gc(a2-6)GalNAc
# In short: as §1
# [40] = biological target: Neu5Gc(a2-8)Neu5Ac(a2-3)Gal(b1-4)GlcNAc
# In short: as §1
# [41] = biological target: Neu5Gc(a2-8)Neu5Gc(a2-3)Gal(b1-4)GlcNAc
# In short: as §1
# [42] = biological target: Neu5Gc(a2-8)Neu5Gc(a2-3)Gal(b1-4)GlcNAc(b1-3)Gal(b1-4)GlcNAc
# In short: as §1
# [43] = biological target: Neu5Gc(a2-8)Neu5Gc(a2-6)Gal(b1-4)GlcNAc
# In short: as §1
# [44] = biological target: Neu5Gc(b2-6)Gal(b1-4)GlcNAc
# In short: as §1
binder,measurement,setting,value
B1,glycan array binding signal (z-score),[1],-0.197
same,glycan array binding signal (z-score),[2],-0.191
same,glycan array binding signal (z-score),[3],-0.206
same,glycan array binding signal (z-score),[4],-0.191
same,glycan array binding signal (z-score),[5],-0.196
same,glycan array binding signal (z-score),[6],-0.206
same,glycan array binding signal (z-score),[7],-0.266
same,glycan array binding signal (z-score),[8],-0.179
same,glycan array binding signal (z-score),[9],-0.217
same,glycan array binding signal (z-score),[10],-0.213
same,glycan array binding signal (z-score),[11],-0.179
same,glycan array binding signal (z-score),[12],-0.185
same,glycan array binding signal (z-score),[13],-0.216
same,glycan array binding signal (z-score),[14],-0.196
same,glycan array binding signal (z-score),[15],-0.153
same,glycan array binding signal (z-score),[16],-0.188
same,glycan array binding signal (z-score),[17],-0.191
same,glycan array binding signal (z-score),[18],-0.195
same,glycan array binding signal (z-score),[19],-0.195
same,glycan array binding signal (z-score),[20],-0.193
same,glycan array binding signal (z-score),[21],-0.213
same,glycan array binding signal (z-score),[22],-0.175
same,glycan array binding signal (z-score),[23],-0.252
same,glycan array binding signal (z-score),[24],-0.211
same,glycan array binding signal (z-score),[25],-0.204
same,glycan array binding signal (z-score),[26],-0.284
same,glycan array binding signal (z-score),[27],-0.194
same,glycan array binding signal (z-score),[28],-0.217
same,glycan array binding signal (z-score),[29],0.091
same,glycan array binding signal (z-score),[30],-0.199
same,glycan array binding signal (z-score),[31],-0.203
same,glycan array binding signal (z-score),[32],-0.181
same,glycan array binding signal (z-score),[33],-0.183
same,glycan array binding signal (z-score),[34],-0.177
same,glycan array binding signal (z-score),[35],-0.217
same,glycan array binding signal (z-score),[36],0.504
same,glycan array binding signal (z-score),[37],-0.184
same,glycan array binding signal (z-score),[38],-0.186
same,glycan array binding signal (z-score),[39],-0.171
same,glycan array binding signal (z-score),[40],-0.256
same,glycan array binding signal (z-score),[41],-0.269
same,glycan array binding signal (z-score),[42],-0.295
same,glycan array binding signal (z-score),[43],-0.265
same,glycan array binding signal (z-score),[44],-0.203
